{"source": "PubChem BioAssay AID588855", "about": "(National Center for Advancing Translational Sciences (NCATS), 2011)", "note": "The campaign covered roughly 410,000 compounds. About 5,000 (1.2%) were called active. The shares of active, inactive and inconclusive entries below differ from those in the screen. The call rests on the fitted dose curve; in most records, active means well fitted inhibition curve with a large enough effect; inconclusive means small, poorly fitted or top-dose-only effect; inactive means no such curve, though single readings can be large or run the other way. A potency beside an inconclusive call is a rough fit, not a confirmed value. Potency means the concentration at half of the fitted maximal effect; tags describe the fitted curve by direction and shape."}
{"assay": "qHTS for Inhibitors of TGF-b; further: nearly all actives have a fitted effect of over 65% in size", "settings": "HepG2 CAGA-GFP TGF-b/SMAD3 reporter, GFP fluorescence, 18 h, TGF-beta stimulated, 500 pg/mL final; series mostly up to 46.1 µM", "summary_of_the_method": "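Cell-based qHTS in HEPG2 carrying a CAGA-GFP Smad reporter; compounds added before 500 pg/mL final TGF-beta, 18 h incubation at 37 degrees C, GFP fluorescence quantified per cell by imaging cytometry.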"}
{"smiles": "CSCCC(c1nnnn1Cc1ccccc1)N1CCC(n2c(=O)[nH]c3ccccc32)CC1", "note": "(stereo unspecified)", "Potency": "inconclusive: 12.6 µM [inhibitor, single point]"}
{"smiles": "Cc1cc(C)cc(NC(=O)Cn2c(=O)oc3cc(S(=O)(=O)N4CC(C)CC(C)C4)ccc32)c1", "note": "(stereo unspecified)", "Potency": "inconclusive: 12.6 µM [inhibitor, partial curve, poor fit]"}
{"smiles": "OC(COCc1ccc(Cl)cc1)CN1CC=C(c2ccccc2)CC1", "note": "(stereo unspecified)", "Potency": "inconclusive: 35.5 µM [inhibitor, single point]"}
{"smiles": "O=C(OCC(=O)c1ccc([N+](=O)[O-])cc1)/C(=C/c1ccc(Cl)cc1)NC(=O)c1ccccc1", "Potency": "inactive"}
{"smiles": "COC(=O)C1=C(c2ccc(OC(F)(F)F)cc2)C[C@@H]2CC[C@H]1N2C(=O)NC1Cc2ccccc2C1", "Potency": "inconclusive: 25.1 µM [inhibitor, single point]"}
{"smiles": "CCOC(=O)C1(c2ccccc2)CCN(CCC(C#N)(c2ccccc2)c2ccccc2)CC1", "Potency": "inactive"}
{"smiles": "Cc1cccc(OP(N)(=O)Oc2cccc(C)c2C)c1C", "Potency": "inconclusive: 17.8 µM [inhibitor, single point]"}
{"smiles": "CCCCC12CNCC(C)(CNC1)C2=O", "Potency": "inactive"}
{"smiles": "O=C1NC(=O)C2(Cc3c(nc4ccccn4c3=O)N3CCCCCC32)C(=O)N1Cc1ccccc1", "note": "(stereo unspecified)", "Potency": "inactive"}
{"smiles": "Cc1ccc(Cn2c(SCc3ccc(C(=O)NC4CCCC4)cc3)nc3ccncc32)cc1", "Potency": "inconclusive: 14.1 µM [inhibitor, partial curve, poor fit]"}
{"smiles": "CCOP(=O)(CCP(=O)(OCC)OCC)OCC.C[CH2][Sn]([Cl])([Cl])[CH2]C", "Potency": "inconclusive: 7.94 µM [inhibitor, partial curve, poor fit]"}
{"smiles": "CSCCC(c1nnnn1C1CCCCC1)N1CCC(n2c(=O)[nH]c3ccccc32)CC1", "note": "(stereo unspecified)", "Potency": "active: 14.1 µM"}
{"smiles": "C[C@H]1CNC(=O)c2c(C(=O)Nc3ccc(CNC(=O)OC(C)(C)C)cc3)ncn21", "Potency": "inactive"}
{"smiles": "CSc1ccc(C(c2c(O)c3ccccc3oc2=O)c2c(C)n(C)n(-c3ccccc3)c2=O)cc1", "note": "(stereo unspecified)", "Potency": "inconclusive: 8.91 µM [inhibitor, partial curve]"}
{"smiles": "CCOc1ccc(S(=O)(=O)NCCc2sc3nc(-c4ccc(C)cc4)nn3c2C)cc1", "Potency": "active: 14.1 µM"}
{"smiles": "COc1ccc(CN2Cc3cc(-c4ccccc4)ccc3-n3nncc3C2)cc1", "Potency": "inconclusive: 35.5 µM [inhibitor, single point]"}
{"smiles": "CCC1(NS(=O)(=O)c2ccc(N)cc2)C(=O)N(C)C(=O)N(C)C1=O", "Potency": "inconclusive: 15.8 µM [inhibitor, single point]"}
{"smiles": "CCCCn1nnnc1C(c1cccs1)N1CCC2(CC1)C(=O)NCN2c1ccccc1", "note": "(stereo unspecified)", "Potency": "inconclusive: 20 µM [inhibitor, partial curve, poor fit]"}
{"smiles": "CC1=CC(=Cc2sc3ccccc3[n+]2C)C=C(C)O1", "Potency": "inconclusive: 35.5 µM [inhibitor, single point]"}
{"smiles": "CCCn1nc2ccccc2c1P(=O)(N1CCOCC1)N1CCOCC1", "Potency": "inconclusive: 3.16 µM [inhibitor, single point]"}
{"smiles": "Cc1ccccc1O", "Potency": "inconclusive: 35.5 µM [inhibitor, single point]"}
{"smiles": "Cc1cccc(NC(=O)c2cccc(NS(=O)(=O)c3ccc(Cl)cc3)c2)c1", "Potency": "inconclusive: 15.8 µM [inhibitor, single point]"}
{"smiles": "COC(=O)C1=C(c2ccccc2OCc2ccccc2)C[C@@H]2CC[C@H]1N2C(=O)NCc1ccc(C(F)(F)F)cc1", "Potency": "inactive"}
{"smiles": "COc1ccc(NS(=O)(=O)c2cc(N=Nc3c(O)[nH]c(=O)[nH]c3=O)ccc2OC)cc1Br", "Potency": "inconclusive: 5.62 µM [inhibitor, single point]"}
{"smiles": "O=C(Nc1ccc2c(c1)OCO2)c1cccn(Cc2ccc(F)cc2)c1=O", "Potency": "inconclusive: 6.31 µM [inhibitor, single point]"}
{"smiles": "CCOC(=O)C1(CCc2ccccc2)CCN(Cc2ccc3c(c2)OCCO3)CC1", "Potency": "inactive"}
{"smiles": "NC(Cc1ccccc1)c1csc(Nc2ccccn2)n1", "note": "(stereo unspecified)", "Potency": "inconclusive: 11.2 µM [inhibitor, partial curve, poor fit]"}
{"smiles": "Cc1cc(C)c(OCC(=O)N2CCN(c3ncc(C(F)(F)F)cc3Cl)CC2)c(C)c1", "Potency": "inconclusive: 17.8 µM [inhibitor, single point]"}
{"smiles": "O=c1c2ccccc2nc(CBr)n1-c1ccc(Cl)cc1", "Potency": "inactive"}
{"smiles": "COC(=O)C1=C(c2ccccc2OCc2ccccc2)C[C@@H]2CC[C@H]1N2C(=O)NCc1cccc(F)c1", "Potency": "inconclusive: 20 µM [inhibitor, partial curve, poor fit]"}
{"smiles": "Cc1ccc(-n2c(O)c(/C=N/NC(=O)c3ccncc3)c(=O)[nH]c2=O)cc1", "Potency": "inactive"}
{"smiles": "COC(=O)C1=C(c2ccccc2OCc2ccccc2)C[C@@H]2CC[C@H]1N2C(=O)NCc1ccc(F)cc1", "Potency": "inconclusive: 35.5 µM [inhibitor, single point]"}
{"smiles": "CC(C)c1ccc(CNC(=O)c2ccc(N3CCCC3)c(NC(=O)NCc3ccccc3)c2)cc1", "Potency": "inconclusive: 15.8 µM [inhibitor, partial curve, poor fit]"}
{"smiles": "CN1CC(C(=O)c2cccs2)C(c2ccc(Cl)cc2)C1", "note": "(stereo unspecified)", "Potency": "inactive"}
{"smiles": "C=CCN1C(=O)/C(=C/c2ccc(Br)s2)C(=O)NC1=S", "Potency": "inconclusive: 22.4 µM [inhibitor, single point]"}
{"smiles": "CCn1c(O)c(N=Nc2cccc(S(=O)(=O)N3CCOCC3)c2)c(=O)n(CC)c1=S", "Potency": "inactive"}
{"smiles": "CC(C)C[C@@H](CN(N=O)[C@@H](Cc1ccccc1)CN(C)N=O)N(CCc1ccccc1)N=O", "Potency": "inconclusive: 5.01 µM [inhibitor, full curve, poor fit]"}
{"smiles": "Clc1ccccc1C1=NCc2nncn2-c2sc(Br)cc21", "Potency": "inactive"}
{"smiles": "O=C(Cc1ccccc1)Oc1cccc(-n2cnnn2)c1", "Potency": "inactive"}
{"smiles": "O=Nc1c(O)c2ccccc2c2ccccc12", "Potency": "active: 2.24 µM"}
{"smiles": "COc1cc(/C=C2\\C[C@H]3[C@@H]4CC=C5C[C@@H](N6CCCC6)CC[C@]5(C)[C@H]4CC[C@]3(C)[C@H]2O)cc(OC)c1OC", "Potency": "inactive"}
{"smiles": "COc1ccc(CC(N)c2csc(NC(=O)Nc3ccccc3Oc3ccccc3)n2)cc1", "note": "(stereo unspecified)", "Potency": "inconclusive: 14.1 µM [inhibitor, partial curve, poor fit]"}
{"smiles": "COC(=O)C1=C(c2cccc(OCc3ccccc3)c2)C[C@@H]2CC[C@H]1N2C(=O)NCCN1CCOCC1", "Potency": "inactive"}
{"smiles": "Cc1sc2c(c1C)C(c1ccc(C(C)(C)C)cc1)=NCC(=O)N2CC(=O)Nc1nccs1", "Potency": "inconclusive: 17.8 µM [inhibitor, single point]"}
{"smiles": "Cc1cc(OCC(=O)N[C@@H](Cc2ccccc2)C(=O)O)c2c3c(c(=O)oc2c1)CCCC3", "Potency": "inactive"}
{"smiles": "CCOC(=O)Cn1cc(/C=N/NC(=O)CC#N)c2ccccc21", "Potency": "inconclusive: 14.1 µM [inhibitor, partial curve]"}
{"smiles": "CN(C)CC(C(=O)Cc1ccccc1)c1ccccc1", "note": "(stereo unspecified)", "Potency": "inconclusive: 2.24 µM [inhibitor, full curve, poor fit]"}
{"smiles": "O=Cc1cn(Cc2c(F)cccc2Cl)c2ccccc12", "Potency": "active: 3.55 µM"}
{"smiles": "Cc1ccc(NC(=O)N2CCN(c3cc(-c4noc(C)n4)ccc3C)CC2)c(F)c1", "Potency": "inconclusive: 8.91 µM [inhibitor, partial curve, poor fit]"}
{"smiles": "COC(=NC1CCCC1)C(O)c1c[nH]c2ccccc12", "note": "(stereo unspecified)", "Potency": "inactive"}
{"smiles": "COc1ccc(C2C=C(c3ccccc3)Nc3nc(NC(=O)/C=C/c4ccccc4Cl)nn32)cc1", "note": "(stereo unspecified)", "Potency": "inconclusive: 2.24 µM [inhibitor, partial curve, poor fit]"}
{"smiles": "S=C(NCCc1ccccc1)N1Cc2cc(N3CCCCC3)ccc2-n2nncc2C1", "Potency": "active: 10 µM"}
{"smiles": "O=c1cccc2n1CC1CC2CN(c2ncnc3c2cnn3-c2ccc(Cl)cc2)C1", "note": "(stereo unspecified)", "Potency": "inactive"}
{"smiles": "O=C1C2CCCN2C(c2cccs2)N1c1ccccn1", "note": "(stereo unspecified)", "Potency": "inactive"}
{"smiles": "O=C(COc1ccc(Cl)cc1)N(c1ccc(Cl)cc1)C1CN2CCC1CC2", "note": "(stereo unspecified)", "Potency": "active: 14.1 µM"}
{"smiles": "CCn1cc(C(=O)NCCc2ccc(OC)c(OC)c2)c(=O)c2cc(S(=O)(=O)N(C)C3CCCCC3)ccc21", "Potency": "inconclusive: 15.8 µM [inhibitor, single point]"}
{"smiles": "COc1c(C)cc(C(=O)C2CCCN(Cc3cccc(C)n3)C2)cc1C", "note": "(stereo unspecified)", "Potency": "inconclusive: 11.2 µM [inhibitor, partial curve]"}
{"smiles": "C=C(C=O)C[C@@H]1C[C@H](O)C2OC3C[C@]4(C)OC5/C=C\\CC6OC7C(CC=CCC6OC5CCCC4OC3CC2O1)OC1CC2OC3CC(=O)OC3C[C@@H](C)C[C@@]2(C)OC1C[C@@H]7C", "note": "(stereo partly specified)", "Potency": "inconclusive: 10 µM [inhibitor, partial curve, poor fit]"}
{"smiles": "O=C1NCN(c2ccccc2)C12CCN(C(c1cc3ccccc3o1)c1nnnn1C1CCCCC1)CC2", "note": "(stereo unspecified)", "Potency": "active: 10 µM"}
{"smiles": "Cc1nc(N2CCN(Cc3ccccc3)CC2)nc2c1C(=O)CC(C)C2", "note": "(stereo unspecified)", "Potency": "inconclusive: 35.5 µM [inhibitor, single point]"}
{"smiles": "CCC1(OC(=O)CN)C(=O)OCc2c1cc1n(c2=O)Cc2cc3ccccc3nc2-1", "note": "(stereo unspecified)", "Potency": "active: 2.24 µM"}
{"smiles": "O=C1CN=C(c2ccccc2)c2cc(Cl)ccc2N1Cc1ccc(Cl)cc1", "Potency": "inconclusive: 14.1 µM [inhibitor, single point]"}
{"smiles": "C=C1C(=O)OC2CC(C)C3C=CC(=O)C3(C)C(O)C12", "note": "(stereo unspecified)", "Potency": "active: 3.16 µM"}
{"smiles": "Cc1ccsc1C(=O)C1CCCN(Cc2ccc(-n3cccn3)cc2)C1", "note": "(stereo unspecified)", "Potency": "inconclusive: 20 µM [inhibitor, single point]"}
{"smiles": "COc1cc2c(cc1OC)C13CCN4C=C5CCOC6CC(=O)N2C1C6C5CC43", "note": "(stereo unspecified)", "Potency": "inconclusive: 3.55 µM [inhibitor, single point]"}
{"smiles": "CC1(C)c2[nH]c3ccccc3c2C[C@@H]2C(=O)N(Cc3ccccc3F)C(=O)N21", "Potency": "inconclusive: 11.2 µM [inhibitor, single point]"}
